B1: CPEB3 Ribozyme (parent)
chain: UAACAGGGGGCCACAGCAGAAGCGUUCACGUCGCAGCCCCUGUCAGAUUCUGGUGAAUCUGCGAAUUCUGCUGUAUAUCUC

Read counts are not given, so values of variants with three or more changes are uncertain.

In the data set the parent is B1. Nature of the data set: self-cleavage, relative activity (ratio to wild type); higher = more cleavage; in vitro, sequencing. The gist of the method: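 Libraries of CPEB3 self-cleaving ribozyme mutants came from rounds of error-prone PCR and carried barcodes, which DNA sequencing matched to variants. In vitro transcription used T7 RNA polymerase at 37°C for 5 hours, with a further 15 min in DNase I before EDTA stopped the reaction; the ribozymes cleaved during both steps. The RNA was reverse transcribed with template switching and sequenced on Illumina. Relative activity is the cleaved/total read fraction of a variant divided by that of the unmutated ribozyme, averaged over three batches with at least 5 reads.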
With UAACAGGGGGCCACAGCAGAGGCGUUCACGUCGCAGCCCCUGUCAGGUUCUGGUGAAUCUGCGAAUUCUACUGUAUGUCUC [A21G A47G G70A A77G], the self-cleavage was determined as 0.23.

With UAACAGGGGGCCACAGCAGAGGUGUUCACGUCGUAGCCCCUGUCAGAUUCUGGUGAAUCGGCGAAUUCUGCUGUAUAUCUC [A21G C23U C34U U60G], the self-cleavage is 0.13.

On to UAACAGGGGGCCACAGCAGAGGCGUUGACGUCGCAGCCCCUGUCAGAUACUGGUGAAUCUGCGAAUUCUGCUGUAUAUCUC [A21G C27G U49A], for which the self-cleavage worked out at 0.07.

On to UAACAGGGGGCCACAGCAGAGGCGUUCACGUCGCAGCCCCUGUCAGGUUCUGGUGAAUCUGCGAAUUCUGCUGUACAUCCC [A21G A47G U76C U80C], for which the self-cleavage turned out to be 0.68.

As to UAACAGGGGGCCACAGCAGAGGCGUUCACGUCGCAGCCCCUGUCAGAUUCUGGUGAAUGCGCGAAUUCUGCUGUAUAUCUC [A21G C59G U60C], the self-cleavage is 0.05.

UAACAGGGGGCCACAGCAGAGGCAUUCACGUCGCGGCCCCUGUCAGAUUCUGGUGAAUCUGCGAAUUCUGCUGUAUAUCUC [A21G G24A A35G]: the self-cleavage is 0.28.

Take UAACAGGGGGCCACAGCAGAGGGGUUCACGUCGCAGCCCCUGUCUGAUUCUGGUGAAUAUGCGGAUUAUGUUGUAUAUCUC [A21G C23G A45U C59A A64G C68A C71U]: the self-cleavage was 0.04.

In the case of UAACAGGGGGCCACAGCAGAGGCGUUCACGUCGCAGCCCCUGUCAGAUUCUGGUGGGUCUGCGAAUUCUGCUGUAUAUCUC [A21G A56G A57G], the self-cleavage is 0.05.

With UAACAGGGGGCCACAGCAGAGGUGUUCACGUCGCAGCCCCUGUCAGAUUCUGGCGAAUCUGCGAAUUCUGCCGUAUAUCUC [A21G C23U U54C U72C], the self-cleavage amounted to 0.14.

Take UAACAGGGGGCCACAGCAGAGGCGUUCACGUCGCAGCCCCUGUCAGAUUCUGGUGAAUCUGCGAAUUCUGCUGUGUAUCAC [A21G A75G U80A]: the self-cleavage is 0.61.

With UAACAGGGGGCCACAGCAGAGGUGUUCACAUCGCAGCCCCUGUCAGAUUCCGGUGAAUCUGCGGAUUCUGCUGUAUACCUC [A21G C23U G30A U51C A64G U78C], the self-cleavage came out at 0.07.

As for UAACAGGGGGCCACAGCAGAGGCGUUCACAUCGCAGCCCCUGUCAGAUUCUGGUGAAUCUGCGAACCCUGCCGUAUAUCUC [A21G G30A U66C U67C U72C], the self-cleavage turned out to be 0.07.

Turning to UAACAGGGGGCCACAGCAGAGGCGUUCAAGUCGCAGCCCCUGUCAGAUUCUGGUGAAUCUGCGUAUUCUGCUGUAUAUCUC [A21G C29A A64U], the self-cleavage was found to be 0.11.

As for UAACAGGGGGCCACAGCAGAGGCGUUCACGUCGCAGCCCCUGUCAGGUUCUGGUGAAUCUGCGAAUUCUGCUGUAUAUCCC [A21G A47G U80C], the self-cleavage worked out at 0.61.

For the variant UAACAGGGGGCCACAGCAGAGGCGUUCACGUCGCAGCCCCUGUCGGAUUCUGGUGAAUCCGCGAAUUCUGCUGUAUAUCUC [A21G A45G U60C], the self-cleavage worked out at 0.81.

With UAACAGGGGGCCACAGCAGAGGGGAUCACGUCGCAGCCCCUGUCAGAUUCUGGUGAAUCUGCGGAUUCUGCUGUAUAUCUC [A21G C23G U25A A64G], the self-cleavage amounted to 0.27.

For the variant UAACAGGGGGCCACAGCAGAGGCGUUCACCCCGCAGCCCCUGUCAGAUUCUGGUGAAUCUGCGAAUUCUGCCGUAUAUCUC [A21G G30C U31C U72C], the self-cleavage came out at 0.06.

Consider UAACAGGGGGCCACAGCAGAGGCAUUCACGUCGCAGCCCCUGUCAGAUUCUGGUGAACCUGCGAAUUCUGCUGUAUAUCUC [A21G G24A U58C], for which the self-cleavage stood at 0.14.

Regarding UAACAGGGGGCCACAGCAGAGGCGUUCACGUCGCAGCCCCUGUCAGAUUCUGGUGAGUCUGCGAACACUGCUGUAUAUCUC [A21G A57G U66C U67A], the self-cleavage was 0.8.

In the case of UAACAGGGGGCCACAGCAGAGGCGUUCACGUCGCAGCCCCUGUCUGAUUCUGGUGAACCUGCGAAUUCUGCUGUAUAUCUC [A21G A45U U58C], the self-cleavage was determined as 0.03.

UAACAGGGGGCCACAGCAGAGGCGUUCACGUCGCAGCCCCUGUCAGGUUCUGGUGAAUCUGCGAAUUAUGCUGUAUAUCUC [A21G A47G C68A]: the self-cleavage is 0.11.

In the case of UAACAGGGGGCCACAGCAGAGGCGUUCACGUCGCAGCCCCUGUCGGAUUCUGGUGAAUCUGCGAAUUCUGCUGUACUUCUC [A21G A45G U76C A77U], the self-cleavage was determined as 0.49.

On to UAACAGGGGGCCACAGCAGAGUCGUUCACGUCGCAGCCCCUGUCAGGUUACGGUGAAUCUGCGAAUUCUGCUGUAUACCUC [A21G G22U A47G C50A U51C U78C], for which the self-cleavage was determined as 0.23.

UAACAGGGGGCCACAGCAGAGGCGUUCACGUCGCAGCCCCUGUCCGGUUCUGGUGAAUCUGCGAAUUCUGCUGUAUAUCUC [A21G A45C A47G]: the self-cleavage turned out to be 0.27.

Turning to UAACAGGGGGCCACAGCAGAGGGGUACACGUCGCAGCCCCUGUCAGAUUCUGGUGAGUCUGCGAAUUCUGCUGUAUAUCUC [A21G C23G U26A A57G], the self-cleavage was found to be 0.31.

Consider UAACAGGGGGCCACAGCAGAGGCGUUCACGUCGCAGCCCCUGUCAGAUUCUGGUGAAUCUGCGUACUCUGCUGUAUAUCUC [A21G A64U U66C], for which the self-cleavage came to 0.31.

As to UAACAGGGGGCCACAGCAGAGGCGUUCACGUCACAGCCCCUGUCAGGUACUGGUGAAUCUGCGAAUUCUGCUGUAUAUCUC [A21G G33A A47G U49A], the self-cleavage was found to be 0.07.

Regarding UAACAGGGGGCCACAGCAGAGGCGUUCACGUCUUAGCCCCUGUCAGAUUCCGGUCAAUCUGCGAACUCUGCUGUAUAUCUC [A21G G33U C34U U51C G55C U66C], the self-cleavage stood at 0.1.

As for UAACAGGGGGCCACAGCAGAGGCGUUCACGUCGCAGCCCCUGUCAGAUUCUGGUGAAUCUGCGAGUUCUGCUGUAUAUCCC [A21G A65G U80C], the self-cleavage stood at 0.38.

UAACAGGGGGCCACAGCAGAGGCGUUCACGUCGCAGCCCAUGUCAGAUUCUGGUGAAUCUGCGUAUUCUGCUGUUUAUCCC [A21G C40A A64U A75U U80C]: the self-cleavage was determined as 0.07.

Take UAACAGGGGGCCACAGCAGAGGCGUUUACGUCGUAGCCCCUGUCAGAUUCUGGUGAAUCUGCGAAUUCUGCUGUACAUCUC [A21G C27U C34U U76C]: the self-cleavage turned out to be 0.07.

On to UAACAGGGGGCCACAGCAGAGGCGUUCACCUCGCAGCCCCUGUCAGAUUCUGGUGAAUCUGCGAAUUCUGCUGUAUAACUC [A21G G30C U78A], for which the self-cleavage is 0.27.

In the case of UAACAGGGGGCCACAGCAGAGGCGUUCACCUCGCAGCCCCUGUCAGAUUCUGGUGAGUCUGCGAAUUCUGCUGUAAAUCUC [A21G G30C A57G U76A], the self-cleavage is 0.17.

UAACAGGGGGCCACAGCAGAGCCGUUCACGUCGCAGCCCCUGUCAGAUCCUGGUGAAUCUGCGAAUUCUGCUGUAUAUCUC [A21G G22C U49C]: the self-cleavage turned out to be 0.25.

Source of the values: the RNAGym collection of RNA variant scans (doi:10.1093/nar/gkz1192).
